The values below come from the antibiotic and cytotoxicity screens of Wong et al. (2023).

Assay [1] concerns HSkMC (human skeletal muscle cells). Description: cytotoxicity call (relative viability < 0.9). Particulars: 10 µM.
Assay [2] has as its system HepG2. Kind of assay: cytotoxicity call (relative viability < 0.9). Particulars: 10 µM.
For assay [3], the system named is S. aureus RN4220. Description: growth inhibition call (relative growth <= 0.2). Particulars: 50 µM.

Each structure is given as a SMILES string. This is one part of the list.

Regarding `Cc1noc(C)c1NC(=O)N(C)C[C@H]1Oc2ccc(NS(C)(=O)=O)cc2CC(=O)N([C@H](C)CO)C[C@H]1C`, the cytotoxicity call in assay [1] and in assay [2] was “inactive” in each case. In addition, the growth inhibition call in assay [3] was “inactive”.
On to `C[C@H](CO)N1C[C@H](C)[C@@H](CN(C)Cc2ccc(C(=O)O)cc2)OCCCC[C@H](C)Oc2ccc(NC(=O)Nc3cccc4ccccc34)cc2C1=O`, for which the cytotoxicity call in assay [1] and in assay [2] was “inactive” each time. The growth inhibition call in assay [3] was “inactive”.
On to `COC(=O)C1(C)CCCC2(C)c3ccc(C(C)C)cc3C(=O)CC12` (centres undefined), for which the cytotoxicity call in assay [1] and in assay [2] was “inactive” throughout. Moreover, in assay [3], the growth inhibition call was “inactive”.
`COc1ccc(NC(=O)Nc2ccc3c(c2)C(=O)N([C@@H](C)CO)C[C@H](C)[C@H](CN(C)S(=O)(=O)c2ccc(C)cc2)OCCCC[C@H](C)O3)cc1`: the cytotoxicity call in assay [1] is “inactive”. Besides, the cytotoxicity call in assay [2] was “active”. Further, in assay [3], the growth inhibition call was “inactive”.
In the case of `COc1ccc(S(=O)(=O)N(C)C[C@H]2Oc3ccc(NC(=O)Cn4cnnn4)cc3C(=O)N([C@H](C)CO)C[C@@H]2C)cc1`, the cytotoxicity call in assay [1] and in assay [2] was “inactive” throughout. Moreover, the growth inhibition call in assay [3] was “inactive”.
With `COc1cccc(S(=O)(=O)N2C[C@H](O)COC[C@@H]3O[C@@H](CC(=O)N4CCN(C)CC4)CC[C@H]32)c1`, the cytotoxicity call in assay [1] and in assay [2] was “inactive” in each case. Also, in assay [3], the growth inhibition call is “inactive”.
On to `O=C(CN1CCOCC1)N[C@@H]1CC[C@H](CCNC(=O)C2CCC2)O[C@H]1CO`, for which the cytotoxicity call in assay [1] and in assay [2] was “inactive” throughout. In addition, in assay [3], the growth inhibition call is “inactive”.
For the molecule `Cc1noc(C)c1S(=O)(=O)Nc1ccc2c(c1)C(=O)N([C@H](C)CO)C[C@H](C)[C@H](CN(C)Cc1ccccc1)OCCCC[C@H](C)O2`, the cytotoxicity call in assay [1] and in assay [2] was “inactive” in each case. The growth inhibition call in assay [3] was “inactive”.
With `COCC#Cc1cnc2c(c1)C(=O)N([C@@H](C)CO)C[C@H](C)[C@H](CN(C)C(=O)CN1CCOCC1)O2`, the cytotoxicity call in assay [1] and in assay [2] was “inactive” throughout. The growth inhibition call in assay [3] is “inactive”.
`Cc1cccc(S(=O)(=O)N2C[C@H](O)COC[C@H]3O[C@@H](CC(=O)NCc4ccncn4)CC[C@@H]32)c1`: the cytotoxicity call in assay [1] and in assay [2] was “inactive” throughout. In addition, the growth inhibition call in assay [3] is “inactive”.
Consider `COCC#Cc1ccc([C@H]2[C@@H](CO)N3C(=O)CN(C(=O)c4cccnc4)C[C@H]23)cc1`, for which the cytotoxicity call in assay [1] and in assay [2] was “inactive” throughout. The growth inhibition call in assay [3] was “inactive”.
For `O=c1c(O)c(O)cc2cccc(O)c(O)c1-2`, the cytotoxicity call in assay [1] is “inactive”. In assay [2], the cytotoxicity call was “active”. The growth inhibition call in assay [3] is “inactive”.
In the case of `C[C@H](CO)N1C[C@H](C)[C@@H](CN(C)C(=O)Nc2ccc(C(F)(F)F)cc2)Oc2ccc(NC(=O)CCCCCC(=O)Nc3ccccc3N)cc2C1=O`, the cytotoxicity call in assay [1] and in assay [2] was “inactive” throughout. Also, the growth inhibition call in assay [3] was “inactive”.
`C[C@@H]1CCCCO[C@@H](CN(C)C(=O)Nc2ccccc2)[C@H](C)CN([C@H](C)CO)C(=O)c2cc(NC(=O)Nc3ccc(C(F)(F)F)cc3)ccc2O1`: the cytotoxicity call in assay [1] and in assay [2] was “inactive” throughout. Besides, the growth inhibition call in assay [3] was “inactive”.
Turning to `O=C(CN1CCOCC1)NCC[C@H]1CC[C@H](NS(=O)(=O)c2ccc(F)cc2)[C@@H](CO)O1`, the cytotoxicity call in assay [1] and in assay [2] was “inactive” throughout. Further, the growth inhibition call in assay [3] is “inactive”.
For `C[C@@H]1CN([C@H](C)CO)C(=O)c2cc(NC(=O)Nc3ccccc3)ccc2O[C@H]1CN(C)S(C)(=O)=O`, the cytotoxicity call in assay [1] and in assay [2] was “inactive” in each case. For the same molecule, the growth inhibition call in assay [3] was “inactive”.
With `C[C@@H]1CN([C@H](C)CO)C(=O)c2cc(NS(=O)(=O)c3cccs3)ccc2O[C@H]1CN(C)CC1CC1`, the cytotoxicity call in assay [1] and in assay [2] was “inactive” in each case. The growth inhibition call in assay [3] was “inactive”.
In the case of `COCC(=O)N(C)C[C@H]1Oc2cc(C#CCN(C)C)ccc2S(=O)(=O)N([C@H](C)CO)C[C@@H]1C`, the cytotoxicity call in assay [1] and in assay [2] was “inactive” throughout. Moreover, in assay [3], the growth inhibition call was “inactive”.
Consider `C[C@H](CO)N1C[C@H](C)[C@@H](CN(C)C(=O)Nc2ccc3c(c2)OCO3)OCCCC[C@H](C)Oc2ccc(NC(=O)Nc3cccc4ccccc34)cc2C1=O`, for which the cytotoxicity call in assay [1] and in assay [2] was “inactive” in each case. For the same molecule, the growth inhibition call in assay [3] was “inactive”.
Turning to `C[C@H](CO)N1C[C@H](C)[C@@H](CN(C)C(=O)Nc2ccc(F)cc2)Oc2ncc(Br)cc2C1=O`, the cytotoxicity call in assay [1] and in assay [2] was “inactive” throughout. For the same molecule, in assay [3], the growth inhibition call was “inactive”.
Turning to `CS(=O)(=O)c1nnc(N)s1`, the cytotoxicity call in assay [1] and in assay [2] was “inactive” throughout. Besides, in assay [3], the growth inhibition call was “inactive”.
For the molecule `C[C@@H]1CN([C@H](C)CO)C(=O)c2cc(NC(=O)NC3CCCCC3)ccc2O[C@@H](C)CCCCO[C@H]1CN(C)Cc1ccc(C(F)(F)F)cc1`, the cytotoxicity call in assay [1] and in assay [2] was “inactive” throughout. Also, the growth inhibition call in assay [3] was “inactive”.
For `COc1ccc(CNC(=O)c2cc3c(c(-c4cccc(-c5ccc(C#N)cc5)c4)n2)[C@@H](CCO)N([S@](=O)C(C)(C)C)C3)cc1`, the cytotoxicity call in assay [1] and in assay [2] was “inactive” each time. Moreover, the growth inhibition call in assay [3] is “inactive”.
